# In all, about 81,000 sequences were measured (“one-hybrid fitness for binding parS DNA”: median about -0.17, highest 2% from about 0.51 on). The list shows a part of the results.
# B1: Caulobacter ParB omega fusion; a variant is named by its letters at X, in order, B8GW30 (parent)
# chain: MESVVVGEPGMSEGRRGLGRGLSALLGEVDAAPAQAPGEQLGGSREAPIEILQRNPDQPRRTFREEDLEDLSNSIREKGVLQPILVRPSPDTAGEYQIVAGERAWRAAQRAGLKTVPIMVRELDDLAVLEIGIIENVQRADLNVLEEALSYKVLMEKFERTQENIAQTIGKSXSHVANXMRLLXLPDEVQSYLVSGELTAXHARAIAAAADPVALAKQIIEGGLSVRETEALARKAPNLSAGKSKGGRPPRVKDTDTQALESDLSSVLGLDVSIDHRGSTGTLTITYATLEQLDDLCNRLTRGI
# Variants of: B1
# Test: one-hybrid fitness for binding parS DNA (scaled: cognate 1, non-cognate 0); higher = stronger binding
# Details: with parS DNA site
# How it was run: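 In E. coli USO, a HIS3 reporter with its site placed 19 bp from the promoter was used to select Caulobacter ParB variants randomised at four specificity codons. Growth lasted 48 hours at 37°C on histidine-free M9 containing 0.1 mM IPTG and 5 mM 3-AT. Fitness was taken as the log change in variant-to-wild-type read ratio from Illumina sequencing of pre- and post-selection plasmids, rescaled between the non-cognate and cognate sites.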
row,Variant,one-hybrid fitness for binding parS DNA
1,RETH,≤ 0.2
2,YMEF,≤ 0.2
3,IKRT,≤ 0.2
4,DYIS,≤ 0.2
5,ELFG,≤ 0.2
6,SRKQ,≤ 0.2
7,SQQA,≤ 0.2
8,RQMA,0.596
9,NMPE,≤ 0.2
10,VELC,≤ 0.2
11,KFYT,≤ 0.2
12,QTPT,≤ 0.2
13,CGAY,≤ 0.2
14,MATR,≤ 0.2
15,PYPI,≤ 0.2
16,QDPE,≤ 0.2
17,MGVN,≤ 0.2
18,VLSG,≤ 0.2
19,SQIW,≤ 0.2
20,SRVL,≤ 0.2
21,IIPC,≤ 0.2
22,LHEK,≤ 0.2
23,DDDP,≤ 0.2
24,QNRV,≤ 0.2

row,Variant,one-hybrid fitness for binding parS DNA
1,LCLM,≤ 0.2
2,AYLA,≤ 0.2
3,NWLE,≤ 0.2
4,SCAR,≤ 0.2
5,RMNN,0.467
6,TAYR,≤ 0.2
7,RNWP,≤ 0.2
8,LYAG,≤ 0.2
9,AMPN,≤ 0.2
10,HSPG,≤ 0.2
11,RFLM,0.247
12,ASQT,≤ 0.2
13,QGKN,≤ 0.2
14,SKRA,≤ 0.2
15,LLCT,≤ 0.2
16,NYER,≤ 0.2
17,SFAT,≤ 0.2
18,PMST,≤ 0.2
19,LYCS,≤ 0.2
20,RAWH,0.223
21,RSCM,0.347
22,YLNS,≤ 0.2
23,ERTI,≤ 0.2
24,QIVV,≤ 0.2

row,Variant,one-hybrid fitness for binding parS DNA
1,DHNS,≤ 0.2
2,VYPT,≤ 0.2
3,HMHT,≤ 0.2
4,MQCR,≤ 0.2
5,FRNR,≤ 0.2
6,YPHC,≤ 0.2
7,TNCL,≤ 0.2
8,RKSL,≤ 0.2
9,QRST,≤ 0.2
10,YGER,≤ 0.2
11,CGQV,≤ 0.2
12,QRCI,≤ 0.2
13,QFHS,≤ 0.2
14,TNNC,≤ 0.2
15,DPCG,≤ 0.2
16,QYWS,≤ 0.2
17,EQLG,≤ 0.2
18,KRKN,≤ 0.2
19,WVDV,≤ 0.2
20,LYFQ,≤ 0.2
21,VWLK,≤ 0.2
22,LMSR,≤ 0.2
23,PTCP,≤ 0.2
24,HATF,≤ 0.2

row,Variant,one-hybrid fitness for binding parS DNA
1,VRYW,≤ 0.2
2,WKLY,≤ 0.2
3,PVKC,≤ 0.2
4,TVVL,≤ 0.2
5,HFVS,≤ 0.2
6,GAYG,≤ 0.2
7,LPCS,≤ 0.2
8,RKTS,0.815
9,RNAL,≤ 0.2
10,HYET,≤ 0.2
11,ERVN,≤ 0.2
12,WTAR,≤ 0.2
13,SDYT,≤ 0.2
14,SRVM,≤ 0.2
15,YLPR,≤ 0.2
16,NDTT,≤ 0.2
17,PRPM,≤ 0.2
18,SSCV,≤ 0.2
19,QADQ,≤ 0.2
20,AGLT,≤ 0.2
21,LVYM,≤ 0.2
22,IRRM,≤ 0.2
23,SQTC,≤ 0.2
24,DRYP,≤ 0.2

row,Variant,one-hybrid fitness for binding parS DNA
1,YYCL,≤ 0.2
2,YSHL,≤ 0.2
3,VGIG,≤ 0.2
4,YRYF,≤ 0.2
5,TMGD,≤ 0.2
6,QQGC,≤ 0.2
7,IPDA,≤ 0.2
8,TRWF,≤ 0.2
9,LLYP,≤ 0.2
10,VNPD,≤ 0.2
11,VSLS,≤ 0.2
12,PTMA,≤ 0.2
13,LKYI,≤ 0.2
14,DPDN,≤ 0.2
15,IARY,≤ 0.2
16,PSEG,≤ 0.2
17,EHAL,≤ 0.2
18,SQCK,≤ 0.2
19,AYAS,≤ 0.2
20,RALI,≤ 0.2
21,IDFR,≤ 0.2
22,AYCK,≤ 0.2
23,QPYY,≤ 0.2
24,GTAS,≤ 0.2

row,Variant,one-hybrid fitness for binding parS DNA
1,QEVS,≤ 0.2
2,IFRK,≤ 0.2
3,HGPT,≤ 0.2
4,TIKS,≤ 0.2
5,QWAR,≤ 0.2
6,FSPI,≤ 0.2
7,RSCR,≤ 0.2
8,CPTY,≤ 0.2
9,NFLN,≤ 0.2
10,HIEI,≤ 0.2
11,ILKC,≤ 0.2
12,RHRK,≤ 0.2
13,LRGL,≤ 0.2
14,RTDH,≤ 0.2
15,SLGN,≤ 0.2
16,HCNE,≤ 0.2
17,LRIH,≤ 0.2
18,PNTG,≤ 0.2
19,QAAI,≤ 0.2
20,PIRK,≤ 0.2
21,QLAC,≤ 0.2
22,TTDT,≤ 0.2
23,TYLV,≤ 0.2
24,WQRC,≤ 0.2

row,Variant,one-hybrid fitness for binding parS DNA
1,CTAC,≤ 0.2
2,YIIY,≤ 0.2
3,VCRC,≤ 0.2
4,MCLV,≤ 0.2
5,LFKP,≤ 0.2
6,NQLG,≤ 0.2
7,LNTF,≤ 0.2
8,GHQG,≤ 0.2
9,KWKA,≤ 0.2
10,RADV,≤ 0.2
11,TCVV,≤ 0.2
12,GNSV,≤ 0.2
13,PKYN,≤ 0.2
14,VEDC,≤ 0.2
15,TSVH,≤ 0.2
16,ESRD,≤ 0.2
17,SVFS,≤ 0.2
18,QIRI,≤ 0.2
19,DSLW,≤ 0.2
20,AMMK,≤ 0.2
21,WMMS,0.232
22,AVGK,≤ 0.2
23,NMWL,≤ 0.2
24,CIAT,≤ 0.2

row,Variant,one-hybrid fitness for binding parS DNA
1,QCGP,≤ 0.2
2,STQY,≤ 0.2
3,NRSH,≤ 0.2
4,SLDS,≤ 0.2
5,FTSR,≤ 0.2
6,KCLY,≤ 0.2
7,NTTT,≤ 0.2
8,NLYH,≤ 0.2
9,EPDS,≤ 0.2
10,EVTC,≤ 0.2
11,SCEW,≤ 0.2
12,QKQM,≤ 0.2
13,KKQL,≤ 0.2
14,CMSS,≤ 0.2
15,PKCG,≤ 0.2
16,CASC,≤ 0.2
17,FEMC,≤ 0.2
18,GLTT,≤ 0.2
19,IPFD,≤ 0.2
20,RPVG,≤ 0.2
21,FTKV,≤ 0.2
22,CCPC,≤ 0.2
23,QTYR,≤ 0.2
24,PSWP,≤ 0.2

row,Variant,one-hybrid fitness for binding parS DNA
1,QRFN,≤ 0.2
2,QENC,≤ 0.2
3,RVYW,≤ 0.2
4,LWHP,≤ 0.2
5,CPLN,≤ 0.2
6,PGMI,≤ 0.2
7,QAGP,≤ 0.2
8,QFQA,≤ 0.2
9,YWHR,≤ 0.2
10,WSRR,≤ 0.2
11,VWKT,≤ 0.2
12,DSPR,≤ 0.2
13,LPMR,≤ 0.2
14,NIDG,≤ 0.2
15,KGSS,≤ 0.2
16,QGKP,≤ 0.2
17,AAHW,≤ 0.2
18,YVHT,≤ 0.2
19,GPIG,≤ 0.2
20,SLCM,≤ 0.2
21,YMKT,≤ 0.2
22,REAL,≤ 0.2
23,HAMT,≤ 0.2
24,RSSS,0.99

row,Variant,one-hybrid fitness for binding parS DNA
1,AELM,≤ 0.2
2,NGIS,≤ 0.2
3,FRNT,≤ 0.2
4,TLKL,≤ 0.2
5,PKGS,≤ 0.2
6,QTRK,≤ 0.2
7,NVMS,≤ 0.2
8,PWEL,≤ 0.2
9,IHKC,≤ 0.2
10,QTAK,≤ 0.2
11,SNMG,≤ 0.2
12,TRSC,≤ 0.2
13,NPLV,≤ 0.2
14,PARS,≤ 0.2
15,CHNW,≤ 0.2
16,RVNE,≤ 0.2
17,SAAM,≤ 0.2
18,THGL,≤ 0.2
19,SMVL,≤ 0.2
20,LDYP,≤ 0.2
21,SGIW,≤ 0.2
22,RFAV,≤ 0.2
23,NEEY,≤ 0.2
24,WWLG,≤ 0.2

row,Variant,one-hybrid fitness for binding parS DNA
1,FYPG,≤ 0.2
2,SMPK,≤ 0.2
3,ENNW,≤ 0.2
4,PGTM,≤ 0.2
5,ICNC,≤ 0.2
6,CINR,≤ 0.2
7,TPAY,≤ 0.2
8,QATR,≤ 0.2
9,QEKS,≤ 0.2
10,NTLG,≤ 0.2
11,TEVS,≤ 0.2
12,MNSW,≤ 0.2
13,AQRV,≤ 0.2
14,CTTW,≤ 0.2
15,QMIW,≤ 0.2
16,QRKF,≤ 0.2
17,KRFH,≤ 0.2
18,EFAR,≤ 0.2
19,NHTC,≤ 0.2
20,VIQW,≤ 0.2
21,TMKG,≤ 0.2
22,NGVV,≤ 0.2
23,MNPG,≤ 0.2
24,YRFC,≤ 0.2

row,Variant,one-hybrid fitness for binding parS DNA
1,ECAS,≤ 0.2
2,EQLN,≤ 0.2
3,GKLV,≤ 0.2
4,RRCR,≤ 0.2
5,MPLA,≤ 0.2
6,PPQW,≤ 0.2
7,KYQR,≤ 0.2
8,LEIT,≤ 0.2
9,DGET,≤ 0.2
10,LPKE,≤ 0.2
11,KGGS,≤ 0.2
12,LTLL,≤ 0.2
13,QRLA,≤ 0.2
14,YTRD,≤ 0.2
15,HAMK,≤ 0.2
16,CTII,≤ 0.2
17,SHYS,≤ 0.2
18,YNLG,≤ 0.2
19,CAGT,≤ 0.2
20,CTGE,≤ 0.2
21,SRFC,≤ 0.2
22,VHPT,≤ 0.2
23,LTLV,≤ 0.2
24,SLMY,≤ 0.2

row,Variant,one-hybrid fitness for binding parS DNA
1,YLKT,≤ 0.2
2,ILCA,≤ 0.2
3,FFTC,≤ 0.2
4,CKGC,≤ 0.2
5,NLDS,≤ 0.2
6,QPPN,≤ 0.2
7,SRHP,≤ 0.2
8,GRTK,≤ 0.2
9,RAET,0.68
10,QHGL,≤ 0.2
11,PYYR,≤ 0.2
12,RYKF,0.257
13,WYNY,≤ 0.2
14,MHHR,≤ 0.2
15,DMRN,≤ 0.2
16,IIKR,≤ 0.2
17,MVVT,≤ 0.2
18,LDWG,≤ 0.2

# Source: a collection of fitness landscapes (doi:10.1016/j.celrep.2020.107928)
